The text below walks through data of the supplement of paper PMC9446081.

Structures are written as SMILES. Out of some 39,000 compounds screened, about 220 (0.56%) showed activity. This is one part of the list.
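Further: static incubation at 37 °C against the wild-type strain, values averaged over two biological replicates.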

The assay has as its system Escherichia coli K-12 BW25113. The assay can be described thus: relative growth (OD600 normalised to plate interquartile mean) (fraction); higher = less growth inhibition, active = 0.2 or less. The following applies: 50 µM; LB; incubation time: overnight (16-24 h).
Consider `Cc1ccc(NC(=O)CN)c(F)c1`, for which the relative growth is inactive: 0.997.
Regarding `C[C@@H]1CCCCO[C@H](CN(C)C(=O)C2CCCCC2)[C@H](C)CN([C@@H](C)CO)C(=O)c2cc(NC(=O)Nc3ccc4c(c3)OCO4)ccc2O1`, the relative growth is inactive: 0.996.
As to `C[C@H]1CN([C@@H](C)CO)S(=O)(=O)c2ccc(C#CC3(O)CCCC3)cc2O[C@H]1CN(C)C(=O)c1ccncc1`, the relative growth was inactive: 1.03.
In the case of `CCS(=O)(=O)Nc1ccc2c(c1)C(=O)N(C)C[C@@H](OC)[C@H](C)CN(Cc1nccs1)[C@H](C)CO2`, the relative growth was inactive: 1.01.
For `O=C(C[C@H]1C[C@H]2c3cc(NS(=O)(=O)c4ccc(F)cc4)ccc3O[C@H]2[C@H](CO)O1)NCc1ccc(Oc2ccccc2)cc1`, the relative growth was inactive: 1.01.
Take `C[C@@H]1CN([C@@H](C)CO)C(=O)c2c(c3ccccc3n2C)-c2ccccc2CO[C@@H]1CN(C)C(=O)Nc1ccccc1C(F)(F)F`: the relative growth was inactive: 0.981.
Turning to `COCC(=O)N1C[C@H](C)[C@@H](OC)CN(C)C(=O)c2cc(NC(=O)Nc3cccc(F)c3)ccc2OC[C@H]1C`, the relative growth was inactive: 0.979.
Take `CCCNC(=O)N1[C@@H]2c3cccc(=O)n3C[C@H]1[C@H](CO)[C@H]2C(=O)NCC(F)(F)F`: the relative growth is inactive: 0.965.
With `C[C@@H]1CCCCO[C@H](CN(C)Cc2ccccc2)[C@H](C)CN([C@H](C)CO)C(=O)c2cc(NS(=O)(=O)c3ccc(F)cc3)ccc2O1` the figure was inactive: 1.
On to `COc1cccc(S(=O)(=O)Nc2ccc3c(c2)[C@@H]2C[C@@H](CC(=O)N4CCCCC4)O[C@@H](CO)[C@@H]2O3)c1`, for which the relative growth is inactive: 0.993.
With `C[C@H](CO)N1C[C@H](C)[C@@H](CN(C)Cc2ccc3c(c2)OCO3)Oc2cc(C#CCN(C)C)ccc2S1(=O)=O` the figure was inactive: 0.887; with `Cc1ccc(S(=O)(=O)N(C)C[C@H]2Oc3ccc(NC(=O)Nc4ccc(C(F)(F)F)cc4)cc3C(=O)N([C@H](C)CO)C[C@@H]2C)cc1`, inactive: 0.978.
Turning to `O=C(C[C@H]1C[C@H]2c3cc(NC(=O)C4CCOCC4)ccc3O[C@H]2[C@@H](CO)O1)NCc1ccc(Cl)cc1`, the relative growth is inactive: 0.967.
As for `C[C@@H]1CN([C@@H](C)CO)C(=O)c2cc(NC(=O)CCC(F)(F)F)ccc2O[C@@H]1CN(C)S(C)(=O)=O`, the relative growth is inactive: 1.
`C[C@H](CO)N1C[C@H](C)[C@H](CN(C)S(=O)(=O)c2ccc(Oc3ccccc3)nc2)OCc2cnnn2CCCC1=O`: the relative growth was inactive: 0.972.
For the molecule `COc1ccc(S(=O)(=O)N(C)C[C@@H]2Oc3ccc(NS(=O)(=O)c4ccc(C)cc4)cc3C(=O)N([C@@H](C)CO)C[C@H]2C)cc1`, the relative growth was inactive: 1.03.
With `C[C@@H]1CN([C@H](C)CO)C(=O)c2cc(NC(=O)Nc3cccc4ccccc34)ccc2O[C@@H]1CN(C)C(=O)Nc1ccc(C(F)(F)F)cc1` the figure was inactive: 1; with `CC1=CCCC(C)=CCC(C)(C)C=CC1` [HUMULENE (alpha)], inactive: 1.1; with `C[C@@H]1CN([C@@H](C)CO)C(=O)Cc2cc(NC(=O)Nc3ccccc3)ccc2O[C@@H]1CN(C)S(=O)(=O)c1cn(C)cn1`, inactive: 0.997.
Consider `CC=Cc1ccc2n(c1=O)C[C@@H]1[C@@H](CO)[C@H](C(=O)NCCC)[C@H]2N1S(=O)(=O)c1cn(C)cn1`, for which the relative growth is inactive: 0.989.
As for `CC(C)NC(=O)Nc1ccc2c(c1)C(=O)N([C@@H](C)CO)C[C@H](C)[C@H](CN(C)C(=O)Nc1ccccc1)OCCCC[C@@H](C)O2`, the figure is inactive: 0.976; as for `Fc1ccc(C2=NNC3=NCCN3C2)cc1F`, inactive: 0.946.
As to `C[C@H]1CCCCO[C@@H](CN(C)C(=O)Nc2ccc3c(c2)OCO3)[C@@H](C)CN([C@@H](C)CO)C(=O)c2cc(NC(=O)Cc3ccccc3)ccc2O1`, the relative growth was inactive: 0.995.
As for `C[C@H]1CN([C@@H](C)CO)C(=O)c2cc(NS(C)(=O)=O)ccc2O[C@@H]1CN(C)C(=O)Nc1ccc(F)cc1`, the figure is inactive: 0.993; as for `C[C@@H]1CCCCO[C@@H](CN(C)C(=O)Nc2cccc3ccccc23)[C@H](C)CN([C@H](C)CO)C(=O)c2cc(NC(=O)CCCN(C)C)ccc2O1`, inactive: 1.01.
On to `C[C@@H]1CN([C@@H](C)CO)S(=O)(=O)c2ccc(C#CC3CC3)cc2O[C@H]1CN(C)C(=O)C1CCCCC1`, for which the relative growth was inactive: 0.92.
With `OC[C@@H]1CN(CCN2CCOCC2)C[C@H](n2cnc3c(NC4CCC4)ncnc32)O1`, the relative growth was inactive: 0.936.
Take `C[C@@H]1CN([C@@H](C)CO)C(=O)c2cc(C#CC3(O)CCCC3)cnc2O[C@H]1CN(C)C(=O)CN(C)C`: the relative growth is inactive: 1.01.
On to `C[C@H](CO)N1C[C@H](C)[C@@H](CN(C)S(=O)(=O)c2cccs2)Oc2ccc(NC(=O)Cn3cnnn3)cc2C1=O`, for which the relative growth was inactive: 0.99.
As for `CC(C)NC(=O)N[C@@H]1CC[C@@H](CCN)O[C@H]1CO`, the figure is inactive: 0.989; as for `C[C@@H]1CN([C@H](C)CO)C(=O)c2cc(NC(=O)Nc3cccc4ccccc34)ccc2O[C@@H](C)CCCCO[C@@H]1CN(C)S(=O)(=O)c1ccccc1`, inactive: 1.17; as for `CC(C)(CO)C(O)C(=O)NCCC(=O)[O-].[Na+]` (stereo unspecified) [PANTOTHENIC ACID(d) Na salt], inactive: 1.03.
Take `CN1CCN(C(=O)C[C@@H]2CC[C@H]3[C@@H](COc4ccc(NC(=O)c5ccc(F)c(F)c5)cc4C(=O)N3C)O2)CC1`: the relative growth was inactive: 1.
In the case of `COc1ccc(S(=O)(=O)Nc2cccc3c2O[C@H](CN(C)S(=O)(=O)c2ccccc2)[C@H](C)CN([C@@H](C)CO)C3=O)cc1`, the relative growth was inactive: 1.05.
As for `CO[C@@H]1CN(C)C(=O)c2ccc(NS(C)(=O)=O)cc2OC[C@H](C)N(S(C)(=O)=O)C[C@H]1C`, the figure is inactive: 0.991.
As to `C[C@@H]1CN([C@H](C)CO)C(=O)c2cc(NC(=O)CCC(F)(F)F)ccc2O[C@@H](C)CCCCO[C@H]1CN(C)Cc1ccc(C(F)(F)F)cc1`, the relative growth is inactive: 1.02.
Regarding `O=C(C[C@@H]1CC[C@H](NC(=O)c2cccnc2)[C@@H](CO)O1)NCCN1CCCCC1`, the relative growth was inactive: 0.971.
On to `C[C@@H]1CN([C@H](C)CO)C(=O)c2cc(NC(=O)C3CC3)ccc2O[C@H]1CN(C)S(=O)(=O)c1ccccc1`, for which the relative growth is inactive: 1.01.
For `Cc1ccc(S(=O)(=O)Nc2ccc3c(c2)CC(=O)N([C@@H](C)CO)C[C@H](C)[C@H](CN(C)S(=O)(=O)c2cn(C)cn2)O3)cc1`, the relative growth was inactive: 0.998.
For `CCCC#Cc1ccc2c(c1)O[C@@H](CN(C)Cc1ccc3c(c1)OCO3)[C@H](C)CN([C@H](C)CO)S2(=O)=O`, the relative growth is inactive: 1.05.
Regarding `CN(C)S(=O)(=O)N1CCO[C@@H]2CN(c3ncc(F)cn3)C[C@@H]21`, the relative growth was inactive: 0.981.
As for `CCCC(=O)Nc1ccc2c(c1)C(=O)N(C)C[C@H](OC)[C@@H](C)CN(Cc1ccc(-c3ccccn3)cc1)[C@@H](C)CO2`, the figure is inactive: 0.996; as for `CC(C)C#Cc1ccc2c(c1)O[C@H](CN(C)C(=O)Cc1ccccn1)[C@@H](C)CN([C@@H](C)CO)S2(=O)=O`, inactive: 0.997.
As for `C[C@H]1CN([C@@H](C)CO)C(=O)c2cc(C#CCN(C)C)cnc2O[C@@H]1CN(C)C(=O)CN1CCOCC1`, the figure is inactive: 0.993; as for `S=C1NCNCN1`, inactive: 1.
On to `C[C@H](CO)N1C[C@H](C)[C@H](CN(C)S(=O)(=O)c2ccccc2F)Oc2ncc(C#Cc3ccccc3)cc2C1=O`, for which the relative growth is inactive: 1.01.
On to `CC(C)NC(=O)Nc1ccc2c(c1)C(=O)N([C@H](C)CO)C[C@@H](C)[C@H](CN(C)S(=O)(=O)c1cn(C)cn1)OCCCC[C@@H](C)O2`, for which the relative growth was inactive: 1.02.
`COc1ccc(S(=O)(=O)N(C)C[C@@H]2Oc3ccc(NS(=O)(=O)c4c(C)noc4C)cc3C(=O)N([C@H](C)CO)C[C@H]2C)cc1`: the relative growth was inactive: 0.977.
Take `Cl.O=C(Nc1ccccc1)OCC(CN1CCCCC1)OC(=O)Nc1ccccc1` (stereo unspecified): the relative growth is inactive: 0.934.
On to `C[C@@H]1CN([C@@H](C)CO)C(=O)c2cc(NC(=O)Nc3cccc4ccccc34)ccc2O[C@@H](C)CCCCO[C@H]1CN(C)Cc1ccccc1`, for which the relative growth is inactive: 1.02.
Consider `C[C@H]1CN([C@@H](C)CO)C(=O)CCCn2nncc2CO[C@@H]1CN(C)C(=O)Nc1cccc2ccccc12`, for which the relative growth was inactive: 1.
Consider `c1cn2c(n1)NCC2`, for which the relative growth was inactive: 1.
As for `C[C@@H]1CN([C@H](C)CO)C(=O)c2cc(NC(=O)CCCN(C)C)ccc2O[C@@H]1CN(C)Cc1ccccc1`, the figure is inactive: 0.984; as for `C[C@@H]1CN([C@H](C)CO)C(=O)Cc2cc(NC(=O)Nc3ccc(C(F)(F)F)cc3)ccc2O[C@H]1CN(C)C(=O)Nc1ccc(F)cc1`, inactive: 1.01; as for `CC(C)NC(=O)N(C)C[C@H]1Oc2ncc(-c3ccc(C(=O)N(C)C)cc3)cc2C(=O)N([C@H](C)CO)C[C@H]1C`, inactive: 0.979.
With `O=C(C[C@@H]1CC[C@H]2[C@@H](COC[C@@H](O)CN2S(=O)(=O)c2ccccc2)O1)NCc1ccc(-c2ccccc2)cc1` the figure was inactive: 0.946; with `Cc1cc(C(=O)Nc2cccc3c2O[C@H](CN(C)Cc2ccc4c(c2)OCO4)[C@H](C)CN([C@@H](C)CO)C3=O)n(C)n1`, inactive: 0.984; with `CC(C)(C)NC(=O)[C@@H]1CN(Cc2cccnc2)CCN1C[C@@H](O)C[C@@H](Cc1ccccc1)C(=O)N[C@H]1c2ccccc2C[C@H]1O`, inactive: 1.01.
As for `COc1ccc(S(=O)(=O)N(C)C[C@H]2Oc3ccc(NS(C)(=O)=O)cc3C(=O)N([C@@H](C)CO)C[C@@H]2C)cc1`, the figure is inactive: 0.984; as for `C[C@H](CO)N1C[C@H](C)[C@@H](CN(C)CC2CC2)Oc2ccc(NS(=O)(=O)c3cccs3)cc2CC1=O`, inactive: 0.974.
For the molecule `C[C@@H]1CN([C@@H](C)CO)C(=O)Cc2cc(NC(=O)Nc3cccc4ccccc34)ccc2O[C@@H]1CN(C)Cc1ccc(C(=O)O)cc1`, the relative growth was inactive: 0.999.
